In the RNAGym collection of RNA variant scans (doi:10.1073/pnas.2313332121):
Variants at the floor of the assay are shown more often than the library holds them.

B1: TPR 5TU (parent)
chain: GGAUCUUCUCGAUCUAACAAAAAAGACAAAUCUGCCACAAAGCUUGAGAGCAUCUUCGGAUGCAGAGGCGGCAGCCUUCGGUGGCGCGAUAGCGCCAACGUUCUCAACUAUGACACGCAAAACGCGUGCUCCGUUGAAUGGAGUUUAUCAUG

Variants of: B1
Assay: polymerase ribozyme fitness, log enrichment relative to wild type (log ratio); higher = more active; in vitro selection for triplet polymerase activity
In short: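 Genotype fitness is the logarithm of its enrichment divided by wild-type enrichment, using inverse-variance-weighted averages of replicates. That logarithm is base 2. Enrichment was measured by Illumina sequencing of input and output libraries from one triplicate in vitro selection round, with frozen incubation at −7 °C, on PCR-built, transcribed mutant libraries of each subunit of a heterodimeric triplet polymerase ribozyme, retaining genotypes with ≥10 input reads and ≥1 read per output.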

Which “polymerase ribozyme fitness (log ratio)” value does the source give for U9C A37C G59U G62U G83C A142U here?
Its value is at most -4.2.

Which “polymerase ribozyme fitness (log ratio)” value does the source give for U9C A37C U55G A66C G70C C76A C131U here?
Its value is at most -4.2.

For U9C A37G C87U U135C G136U, which “polymerase ribozyme fitness (log ratio)” value is on record?
Its value is at most -4.2.

With U9C A37U U134G G140C G152U as the variant, how does the “polymerase ribozyme fitness (log ratio)” value read?
The value was at most -4.2.

For U9C A40C U45A G65C C85A U111G A113U C118G, which “polymerase ribozyme fitness (log ratio)” value is on record?
Its value is at most -4.2.

With U9C A40C U56A C96G U101C U134C as the variant, how does the “polymerase ribozyme fitness (log ratio)” value read?
Its value is at most -4.2.

With U9C A40U G58A G94A A107U as the variant, how does the “polymerase ribozyme fitness (log ratio)” value read?
The value was at most -4.2.

Which “polymerase ribozyme fitness (log ratio)” value does the source give for U9C A41G A60U A66U G100C here?
Its value is at most -4.2.

Which “polymerase ribozyme fitness (log ratio)” value does the source give for U9C A47U here?
Its value is -3.94.

Which “polymerase ribozyme fitness (log ratio)” value does the source give for U9C A47U U53G A106C A110G G136A here?
Its value is at most -4.2.

Which “polymerase ribozyme fitness (log ratio)” value does the source give for U9C A52G U53A C114G U145G here?
The value was at most -4.2.

With U9C A60C U82A G84U U102G G126U as the variant, how does the “polymerase ribozyme fitness (log ratio)” value read?
The value was at most -4.2.

Which “polymerase ribozyme fitness (log ratio)” value does the source give for U9C C10G C35U G94A C103A C108U A115U G140U here?
Its value is at most -4.2.

Which “polymerase ribozyme fitness (log ratio)” value does the source give for U9C C14U C57G C93G G140U here?
Its value is at most -4.2.

With U9C C18G A21G A29U C87G as the variant, how does the “polymerase ribozyme fitness (log ratio)” value read?
Its value is at most -4.2.

For U9C C35G A39U C103G, which “polymerase ribozyme fitness (log ratio)” value is on record?
The value was at most -4.2.

Which “polymerase ribozyme fitness (log ratio)” value does the source give for U9C C38U A52U C75G G92U G94A G136U U144G here?
Its value is at most -4.2.

For U9C C43G G65A G67C C95A, which “polymerase ribozyme fitness (log ratio)” value is on record?
The value was -4.09.

With U9C C51U C93U C103U A150G as the variant, how does the “polymerase ribozyme fitness (log ratio)” value read?
The value was at most -4.2.

For U9C C57A C87A C116U, which “polymerase ribozyme fitness (log ratio)” value is on record?
Its value is at most -4.2.

For U9C C57U G65C C69U C114G A142C, which “polymerase ribozyme fitness (log ratio)” value is on record?
The value was at most -4.2.

For U9C C57U G70U U82G C95G, which “polymerase ribozyme fitness (log ratio)” value is on record?
The value was at most -4.2.

For U9C C76U, which “polymerase ribozyme fitness (log ratio)” value is on record?
Its value is -2.74.

Which “polymerase ribozyme fitness (log ratio)” value does the source give for U9C C85G A113C U130C C131U here?
Its value is at most -4.2.

With U9C C85U as the variant, how does the “polymerase ribozyme fitness (log ratio)” value read?
The value was -3.24.

For U9C C99A G117A, which “polymerase ribozyme fitness (log ratio)” value is on record?
Its value is at most -4.2.

For U9C C108A, which “polymerase ribozyme fitness (log ratio)” value is on record?
The value was at most -4.2.

Which “polymerase ribozyme fitness (log ratio)” value does the source give for U9C G11A C27G U55G A66G U78G U82A here?
Its value is at most -4.2.

With U9C G42C G74C G133C U144C as the variant, how does the “polymerase ribozyme fitness (log ratio)” value read?
Its value is at most -4.2.

For U9C G58C U134G A150U, which “polymerase ribozyme fitness (log ratio)” value is on record?
The value was at most -4.2.

For U9C G62C C93U, which “polymerase ribozyme fitness (log ratio)” value is on record?
Its value is at most -4.2.

With U9C G62C G70C C99G G126A as the variant, how does the “polymerase ribozyme fitness (log ratio)” value read?
The value was at most -4.2.

With U9C G84A C103U as the variant, how does the “polymerase ribozyme fitness (log ratio)” value read?
The value was at most -4.2.

With U9C G86U C103A C116G U139G as the variant, how does the “polymerase ribozyme fitness (log ratio)” value read?
The value was at most -4.2.

With U9C U13G A41C U56C C87U G88C A142G U151G as the variant, how does the “polymerase ribozyme fitness (log ratio)” value read?
The value was at most -4.2.

For U9C U13G C103G, which “polymerase ribozyme fitness (log ratio)” value is on record?
The value was at most -4.2.

With U9C U31G C36G U44G C69U A91U as the variant, how does the “polymerase ribozyme fitness (log ratio)” value read?
The value was at most -4.2.

For U9C U31G C38A G65A A66G G74A C87U G124U U139A, which “polymerase ribozyme fitness (log ratio)” value is on record?
Its value is at most -4.2.

With U9C U53A C57A C79A A107G C131A as the variant, how does the “polymerase ribozyme fitness (log ratio)” value read?
Its value is at most -4.2.

With U9C U56G G86U C96U as the variant, how does the “polymerase ribozyme fitness (log ratio)” value read?
The value was at most -4.2.

With U9C U102A U139G as the variant, how does the “polymerase ribozyme fitness (log ratio)” value read?
The value was at most -4.2.

With U9G as the variant, how does the “polymerase ribozyme fitness (log ratio)” value read?
The value was -2.82.

With U9G A12C A16U U31A G62A G71A G80C C87U C108U as the variant, how does the “polymerase ribozyme fitness (log ratio)” value read?
Its value is at most -4.2.

For U9G A12C U15A A30C U45A A49C U55A C95A C118U A147U, which “polymerase ribozyme fitness (log ratio)” value is on record?
The value was at most -4.2.

Which “polymerase ribozyme fitness (log ratio)” value does the source give for U9G A12G A40C A41C A107U C108G G117C here?
Its value is at most -4.2.

For U9G A12U A19U A21U G58A C76U G84A A106U, which “polymerase ribozyme fitness (log ratio)” value is on record?
Its value is at most -4.2.

With U9G A12U A40G U45A A73U C79A G94C A113U as the variant, how does the “polymerase ribozyme fitness (log ratio)” value read?
Its value is at most -4.2.

With U9G A16C A30C G34A G58U C93G C105A A110G C118U C149U as the variant, how does the “polymerase ribozyme fitness (log ratio)” value read?
The value was -4.17.

Which “polymerase ribozyme fitness (log ratio)” value does the source give for U9G A16G C43G G59U A89C A142C here?
Its value is at most -4.2.

For U9G A16U C27A A37U A41G G58U A91U A110C U134A G141C, which “polymerase ribozyme fitness (log ratio)” value is on record?
Its value is at most -4.2.

Which “polymerase ribozyme fitness (log ratio)” value does the source give for U9G A16U G80A G83C here?
Its value is -4.08.

Which “polymerase ribozyme fitness (log ratio)” value does the source give for U9G A17C A26U C36A A60G G83C G86U A97C U101C A106G C132U here?
The value was at most -4.2.

For U9G A17C A37C G42C U55A C75G G83A C105U G141C, which “polymerase ribozyme fitness (log ratio)” value is on record?
Its value is at most -4.2.

For U9G A17C A52C G84A C118A, which “polymerase ribozyme fitness (log ratio)” value is on record?
Its value is at most -4.2.

With U9G A17G A41G U53A U77G G84U C116A G141A A147G as the variant, how does the “polymerase ribozyme fitness (log ratio)” value read?
Its value is at most -4.2.

Which “polymerase ribozyme fitness (log ratio)” value does the source give for U9G A17G A52U C75G G84A C105U here?
The value was at most -4.2.

Which “polymerase ribozyme fitness (log ratio)” value does the source give for U9G A17G G58A G65A C93U G133A here?
Its value is at most -4.2.

For U9G A17U C27G G50U U56G C87U A107C, which “polymerase ribozyme fitness (log ratio)” value is on record?
Its value is at most -4.2.

For U9G A17U G58C G68U C93G C103A U134C, which “polymerase ribozyme fitness (log ratio)” value is on record?
The value was at most -4.2.

Which “polymerase ribozyme fitness (log ratio)” value does the source give for U9G A19C A23G A39G C93G U139A G152U here?
The value was at most -4.2.

Which “polymerase ribozyme fitness (log ratio)” value does the source give for U9G A19G C36U U134C here?
The value was at most -4.2.

Which “polymerase ribozyme fitness (log ratio)” value does the source give for U9G A19U C85A A137U here?
The value was at most -4.2.

For U9G A20U U31C C38G G86A U127G, which “polymerase ribozyme fitness (log ratio)” value is on record?
The value was at most -4.2.

Which “polymerase ribozyme fitness (log ratio)” value does the source give for U9G A21C U44G G81A A91U C93U C118A here?
Its value is at most -4.2.

For U9G A21U A24G G71A G84U G126A, which “polymerase ribozyme fitness (log ratio)” value is on record?
The value was at most -4.2.

With U9G A21U C35U U55A C108U C118U G128A G133A as the variant, how does the “polymerase ribozyme fitness (log ratio)” value read?
The value was at most -4.2.

With U9G A22U A23C A30U C51U G58C G92U C149G as the variant, how does the “polymerase ribozyme fitness (log ratio)” value read?
The value was at most -4.2.

With U9G A23C U61A G86C A121C as the variant, how does the “polymerase ribozyme fitness (log ratio)” value read?
The value was at most -4.2.

Which “polymerase ribozyme fitness (log ratio)” value does the source give for U9G A23U C132G U144G here?
Its value is at most -4.2.

For U9G A24C U61A G84U A122G, which “polymerase ribozyme fitness (log ratio)” value is on record?
Its value is at most -4.2.

For U9G A24G C27U A41C A47U C57G G59A U61A C69G G124A A142U, which “polymerase ribozyme fitness (log ratio)” value is on record?
The value was at most -4.2.

With U9G A24G U53A G67A C75G C87G as the variant, how does the “polymerase ribozyme fitness (log ratio)” value read?
Its value is at most -4.2.

For U9G A24U C96U U144G, which “polymerase ribozyme fitness (log ratio)” value is on record?
The value was at most -4.2.

Which “polymerase ribozyme fitness (log ratio)” value does the source give for U9G A26C A30G G83C C93U A107U here?
Its value is at most -4.2.

Which “polymerase ribozyme fitness (log ratio)” value does the source give for U9G A28C A39G A41C C51U C57G G59C G86A C125G A150G here?
Its value is at most -4.2.

For U9G A28C C36A A97G C116A A119U, which “polymerase ribozyme fitness (log ratio)” value is on record?
The value was at most -4.2.

With U9G A28G U53A G58A C96A C108G G133C as the variant, how does the “polymerase ribozyme fitness (log ratio)” value read?
Its value is at most -4.2.

For U9G A29G A60U C76A C87A G100A G124C U127A G140C C149U, which “polymerase ribozyme fitness (log ratio)” value is on record?
The value was at most -4.2.

Which “polymerase ribozyme fitness (log ratio)” value does the source give for U9G A29G C85U A121U G128U here?
The value was at most -4.2.

With U9G A29U A40C A73G C85A U101G U151A as the variant, how does the “polymerase ribozyme fitness (log ratio)” value read?
The value was at most -4.2.

For U9G A29U U45G C75A G88U C96A G141A, which “polymerase ribozyme fitness (log ratio)” value is on record?
The value was at most -4.2.

For U9G A30U U55G G62A G92A G100U G117C U148G, which “polymerase ribozyme fitness (log ratio)” value is on record?
Its value is at most -4.2.

For U9G A37G C54A C85G G140C, which “polymerase ribozyme fitness (log ratio)” value is on record?
The value was at most -4.2.
